Laboratory results from patent US12173330B2, “Method for producing hydroxy-L-pipecolic acid” (API CORPORATION, priority 2015, dated 2024).

Substrate: O=C(O)[C@@H]1CCCCN1
Test: purified protein, by the assay type
Conditions: other: substrate: L-pipecolic acid, 20 mmol/L 2-oxoglutaric acid, 30° C.

B1: Penicillium chrysogenum Wisconsin 54-1255 L-pipecolic acid trans-4-hydroxylase PcPH, SEQ ID NO: 14 (Penicillium rubens Wisconsin 54-1255) (protein)
chain: MSQALDLSLLKGSPEERDEVSAALLDTLKTRGVAKLKNHGLPEDLIAEMFDYTRRFFSLSLEDKMTAKHPPEANPNRGYSYVGQESVSSISGYEKGLPQGKTIRDIKETLDMGSPHDSLVDNIWVAEEKLPGFRKFMEDFYESCFKVELEILDALAQALEISAPDLRLLHNKAENEFRLLHYPAVPASALEDGTATRIAEHTDFGTITMLFQDSTGGLQVEDQTNLGTFHDVVSGGKSEIILNIGDSLQRLTNDTFMAACHRVTYPPTVKVGSDVVIPERYSVAYFAKPNRIASLFPLKKFITPATPCKYEDITAWDYNNLRIAKLFS
Q: With B1 as the protein, how does the Km read?
A: Its Km is 3.67 mM.

Q: And the Vmax?
A: Its Vmax is 16.16 U/mg-protein.
